In the supplement of paper PMC4723716:
± gives the uncertainty stated by the source. The full ranking holds about 9,900 compounds; the median of “viability index relative to DMSO control” is about 1, and the lowest 2% start at about 0.85. This is one part of the list.

Tested on: Plasmodium falciparum NF54 stage V gametocytes
Assay: viability index relative to DMSO control (fraction); higher = less gametocyte killing
Details: 2.5 µM, incubation time: 72 h
Method in brief: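 Gametocytes (P. falciparum NF54, stage V) were treated with compound at 2.5 µM for 72 hr at 37°C in low oxygen, in serum-free medium at 0.75% gametocytemia and 1.25% hematocrit. Counts of 20–70 µm2 red particles, taken from one field per well after MitoTracker Red CMXRos with saponin, were divided by the plate mean of solvent-only wells. This ratio is the viability index.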

[1] = library set: Broad Institute DOS

CCCNC(=O)N1CC[C@@H]2[C@@H](CO)N(C)c3ccc(-c4cccc(OC)c4)cc3[C@@H]21 was tested, and the viability index [1] was 1.16 ± 0.047.
In the case of C[C@H](NC(=O)C[C@H]1CC[C@H]2[C@H](COc3ccc(NS(=O)(=O)c4ccc(Cl)cc4)cc3C(=O)N2C)O1)c1ccccc1, the viability index [1] is reported as 0.976 ± 0.049.
CCCC(=O)N1C[C@@H]2[C@H](c3ccccc31)[C@@H](CO)N2C(=O)Nc1ccc(F)cc1 was tested, and the viability index [1] was 1.02 ± 0.063.
In the case of COc1ccc2c3c([nH]c2c1)[C@H](CO)N(Cc1cccc(F)c1)C[C@]31CCN(CC1)C(C)=O, the viability index [1] is reported as 0.989 ± 0.024.
Compound O=C(C[C@H]1CC[C@H](NC(=O)c2ccc(F)cc2)[C@@H](CO)O1)NCCc1ccccc1 has a viability index [1] of 1.09 ± 0.074.
With O=C(C[C@H]1C=C[C@H](NC(=O)Cc2ccccn2)[C@@H](CO)O1)NCCc1ccncc1 the viability index [1] was 1.008 ± 0.008.
Work on Cc1ccc(S(=O)(=O)N2[C@@H]3CNC[C@H]2[C@H]3c2ccc(/C=C/c3ccccc3)cc2)cc1 yielded a viability index [1] of 1.07 ± 0.034.
CCS(=O)(=O)Nc1ccc2c(c1)C(=O)N(C)[C@@H]1CC[C@@H](CC(=O)NC3CCCCC3)O[C@@H]1CO2 was tested, and the viability index [1] was 1.04 ± 0.082.
With CO[C@H]1CN(C)C(=O)c2cc(NC(=O)Cc3ccccc3)ccc2OC[C@H](C)N(C(=O)c2ccccc2F)C[C@@H]1C the viability index [1] was 1.088 ± 0.0068.
In the case of CN1CCN(C(=O)C[C@H]2CC[C@@H]3[C@H](COC[C@@H](O)CN3C(=O)Nc3ccc4c(c3)OCO4)O2)CC1, the viability index [1] is reported as 1.05 ± 0.017.
Work on COc1ccc2c3c([C@@H](CO)N(C)C[C@]33CCN(CC3)S(=O)(=O)c3cccc(F)c3)n(C)c2c1 yielded a viability index [1] of 0.981 ± 0.078.
Work on C[C@@H]1CCCCO[C@H](CN(C)C(=O)c2ccncc2)[C@H](C)CN([C@H](C)CO)C(=O)c2cc(NC(=O)CCC(F)(F)F)ccc2O1 yielded a viability index [1] of 1.04 ± 0.067.
C[C@@H]1CN([C@@H](C)CO)S(=O)(=O)c2ccc(C#Cc3ccccc3F)cc2O[C@@H]1CN(C)C(=O)Cc1cccnc1 was tested, and the viability index [1] was 0.996 ± 0.011.
COCC(=O)Nc1ccc2c(c1)C(=O)N(C)[C@@H]1CC[C@H](CC(=O)NC3Cc4ccccc4C3)O[C@@H]1CO2 gave a viability index [1] of 1.1 ± 0.063.
COc1ccccc1S(=O)(=O)N(C)C[C@H]1OCc2cn(nn2)CCCC(=O)N([C@@H](C)CO)C[C@H]1C gave a viability index [1] of 1.01 ± 0.027.
In the case of C/C=C/c1ccc2n(c1=O)C[C@H]1[C@H](CO)[C@@H](C(=O)N[C@H](C)c3ccccc3)N(C(=O)c3ccccn3)[C@@H]21.C/C=C\c1ccc2n(c1=O)C[C@H]1[C@H](CO)[C@@H](C(=O)N[C@H](C)c3ccccc3)N(C(=O)c3ccccn3)[C@@H]21, the viability index [1] is reported as 1.05 ± 0.085.
CNC[C@H]1OCCCC[C@@H](C)Oc2ccc(NS(=O)(=O)c3ccc(F)cc3)cc2C(=O)N([C@@H](C)CO)C[C@@H]1C gave a viability index [1] of 1.01 ± 0.012.
C/C=C/c1ccc([C@@H]2[C@H](CO)N(C(=O)CN(C)C)C23CN(C(=O)C2CCOCC2)C3)cc1 was tested, and the viability index [1] was 0.967 ± 0.05.
Compound CCCC(=O)Nc1ccc2c(c1)C(=O)N(C)[C@@H]1CC[C@@H](CC(=O)N3CCCCC3)O[C@@H]1CO2 has a viability index [1] of 1.09 ± 0.14.
With CNC[C@H]1OCCCC[C@@H](C)Oc2ccc(N)cc2C(=O)N([C@H](C)CO)C[C@@H]1C the viability index [1] was 1.08 ± 0.058.
Work on Cc1noc(C)c1NC(=O)N(C)C[C@H]1OCc2cn(nn2)CCCC(=O)N([C@@H](C)CO)C[C@H]1C yielded a viability index [1] of 0.957 ± 0.091.
CCCNC(=O)N(C)C[C@H]1Oc2cc(C#C[C@H](C)O)ccc2S(=O)(=O)N([C@H](C)CO)C[C@H]1C showed a viability index [1] of 1.1 ± 0.051.
COc1ccccc1NC(=O)Nc1ccc2c(c1)OC[C@@H](C)N(Cc1ccccc1Cl)C[C@@H](C)[C@H](OC)CN(C)C2=O was tested, and the viability index (library set: Broad Institute Blood Stage) was 0.821 ± 0.053.
Work on C[C@@H]1CCCCO[C@@H](CN(C)Cc2ccc(Cl)c(Cl)c2)[C@@H](C)CN([C@@H](C)CO)C(=O)c2cc(NS(=O)(=O)c3cccs3)ccc2O1 yielded a viability index [1] of 1.03 ± 0.04.
For O=C(NC[C@H]1N[C@H](CO)[C@@H]1c1ccc(-c2cncnc2)cc1)C1CCCCC1, the viability index [1] was 1.08 ± 0.048.
With COc1ccc(CN(C)C[C@@H]2OCCCC[C@H](C)Oc3ccc(NC(=O)C4CCCCC4)cc3C(=O)N([C@H](C)CO)C[C@@H]2C)cc1 the viability index [1] was 1.16 ± 0.055.
CO[C@@H]1CC[C@H]2CCOc3ccc(C#N)cc3C(=O)N(C)C[C@@H](c3ccccc3)CC(=O)N(C)C[C@H]1O2 gave a viability index [1] of 1.02 ± 0.014.
In the case of CC[C@@H]1C/C=C\CCNC(=O)C[C@H](c2ccccc2)C(=O)N1, the viability index [1] is reported as 0.948 ± 0.096.
Work on CC(C)[C@@H]1C/C=C/C[C@H](C)Oc2ccccc2C(=O)N(C)[C@H](C(C)C)C(=O)N1.CC(C)[C@@H]1C/C=C\C[C@H](C)Oc2ccccc2C(=O)N(C)[C@H](C(C)C)C(=O)N1 yielded a viability index [1] of 1.06 ± 0.029.
Compound C[C@H]1CCCCO[C@@H](CN(C)Cc2ccc(C(F)(F)F)cc2)[C@@H](C)CN([C@@H](C)CO)C(=O)c2cc(NC(=O)Nc3cccc4ccccc34)ccc2O1 has a viability index [1] of 1.16 ± 0.018.
Work on COCC(=O)N1CC2(C1)[C@H](c1ccc(-c3ccc(C)cc3)cc1)[C@@H](CO)N2C(C)=O yielded a viability index [1] of 1.053 ± 0.0085.
COc1ccc2c3c([nH]c2c1)[C@@H](CO)N(Cc1ccccc1)C[C@]31CN(C1)C(=O)c1ccccn1 was tested, and the viability index [1] was 0.982 ± 0.018.
CN1c2ccc(C#Cc3cccnc3)cc2[C@@H]2[C@@H](CCN2C(=O)c2cccc(F)c2)[C@@H]1CO showed a viability index [1] of 1.09 ± 0.015.
